In PubChem BioAssay AID1346428 (National Center for Advancing Translational Sciences (NCATS), 2018) one finds activation data, which are given here for 84 molecules.

Values joined by “and” are separate entries in the source; they are usually repeats but may differ in a detail not shown here. Identical values can stand only once. The whole screen tested about 48,000 compounds, of which about 1,200 (2.5%) were called active. Another 2% or so got no clear call; they are omitted.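 How the source made its calls: active means activation of at least 60% and not above a set upper limit (about 1 call in 100 departs from these limits); inconclusive means activation of 40% to 60%, or above that upper limit; inactive means activation under 40%.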 The list shows a part of the results.

In the assay the target is Probable G-protein coupled receptor 32 (Homo sapiens) (UniProt O75388). Kind of assay: qHTS for Agonists of Human Resolvin D1 Receptor DRV1. Further: 0% is about no effect. To be noted: CHO-K1 GPR32 beta-arrestin PathHunter luminescence, 90 min; at 76.9 µM; hits give high values; zero percent set by DMSO-only wells. In a few lines: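 Agonism was scored by beta-Gal fragment complementation (chemiluminescent read, 1 h detection at ambient temperature) reporting beta-arrestin binding to GPR32 in engineered CHO-K1 cells. Compound treatment lasted 90 min at 37 C, normalized to a DMSO basal control.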
UniProt O75388, sequence (O75388 whole entry, looked up, the tested form may be a part): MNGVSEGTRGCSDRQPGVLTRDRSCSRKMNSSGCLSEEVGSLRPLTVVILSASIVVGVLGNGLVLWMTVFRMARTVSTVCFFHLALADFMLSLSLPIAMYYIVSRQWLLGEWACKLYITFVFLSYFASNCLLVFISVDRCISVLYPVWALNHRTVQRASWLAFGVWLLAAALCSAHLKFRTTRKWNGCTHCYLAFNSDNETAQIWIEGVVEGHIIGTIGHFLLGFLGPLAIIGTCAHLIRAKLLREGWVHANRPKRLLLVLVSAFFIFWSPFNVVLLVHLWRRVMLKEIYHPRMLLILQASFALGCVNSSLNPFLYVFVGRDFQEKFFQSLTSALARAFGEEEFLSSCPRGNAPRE
For `COc1ccc2sc(N(Cc3cccnc3)C(=O)c3ccco3)nc2c1`, the activation was inactive: -21.3%.

As to `Cc1ccc(C)c(NC(=O)CSc2nncn3c2cc2sccc23)c1`, the activation was inactive: -8.43%.

For `CCc1cccc(C)c1NC(=O)Nc1csc2c1CCCC2`, the activation is inactive: -21.5%.

Regarding `Cc1oc(-c2ccc(Cl)cc2)nc1CSc1nnc(C)n2c1cc1sccc12`, the activation was inactive: -4.21%.

On to `O=C1N=C(O)CN1/N=C/c1ccc(-c2ccc([N+](=O)[O-])cc2)o1`, for which the activation was inactive: -25.7% and inactive: 9.29%.

On to `Cc1ccc(CCNc2nc3ccccc3c3nc(-c4ccccc4)nn23)cc1`, for which the activation was inactive: 8.4%.

In the case of `COc1ccc(-c2noc(-c3ccc(NC4CCCCC4)c([N+](=O)[O-])c3)n2)cc1OC`, the activation was inactive: 13.2%.

In the case of `Cc1cccc(CS(=O)(=O)CC2Nc3ccc(C(=O)NCc4ccccc4Cl)cc3NC2=O)c1` (centres undefined), the activation was inactive: -13.7%.

Take `COC(=O)c1cc(NC(=O)Cn2ncc3c2-c2ccccc2OC3)cc(C(=O)OC)c1`: the activation was inactive: -37.9%.

In the case of `Cc1ccc(-n2c(=O)c3c(C)c(C)sc3n(CC(=O)c3ccc(Cl)cc3)c2=O)cc1C`, the activation is inactive: -15.3%.

`CCCn1c2ccccc2c2cnn(CC(=O)N(CCCOC(C)C)Cc3ccco3)c(=O)c21`: the activation is inactive: 9.92%.

Take `COc1cc(Nc2ncnc3onc(-c4ccc(Cl)cc4)c23)cc(OC)c1`: the activation was inactive: 33.4%.

On to `COc1cc(C(=O)Nc2ccc(OCc3cc(=O)n4ccc(C)cc4n3)cc2)cc(OC)c1OC`, for which the activation was inactive: 4.48%.

For `N#Cc1ccccc1CSc1nnc(-c2ccccc2)o1`, the activation was inactive: -1.15%.

For `Cc1ccn2c(Nc3ccc4c(c3)OCO4)c(-c3ccco3)nc2c1`, the activation is inactive: -5.6%.

On to `N#Cc1c(C(F)(F)F)cc(-c2cccs2)nc1SCC(=O)Nc1ccc(Cl)cc1`, for which the activation is inactive: -11.1%.

In the case of `O=C(Cn1c(=O)n(Cc2ccc(F)cc2)c(=O)c2sc3ccccc3c21)NCc1ccccc1Cl`, the activation is inactive: 0.161%.

Turning to `COc1ccc(N2CCN(C(CNS(=O)(=O)c3c(C)cc(C)cc3C)c3ccco3)CC2)cc1` (centres undefined), the activation is inactive: -30.9%.

As for `Cc1cccc(N2CCN(S(=O)(=O)c3c(C)[nH]c(=O)[nH]c3=O)CC2)c1C`, the activation was inactive: 5.29%.

For `COc1ccc(NC(=O)c2c(C)oc3ccc(O)c(CN4CCCC(C)C4)c23)cc1Cl` (centres undefined), the activation is inactive: -21.8%.

`Cc1ccc(-n2ncc(C(=O)N3CCc4ccccc4C3)c2C2CCN(C(=O)OC(C)(C)C)CC2)cc1C`: the activation was inactive: -13.9%.

Turning to `Cc1ccc(C)c(CN2C(=O)c3ccccc3Sc3ccc(C(=O)NC4CCCC4)cc32)c1`, the activation was inactive: -3.57%.

As to `Cc1cc(C)c(C#N)c(SCC(=O)Nc2ccccc2C#N)n1`, the activation is inactive: 6.61%.

In the case of `Cc1ccc(N2CCN(C(=O)CCc3c(C)nc4ncnn4c3C)CC2)c(C)c1`, the activation is inactive: 16.9%.

For the molecule `COc1ccccc1-c1noc(-c2ccc(NCCc3ccccc3)c([N+](=O)[O-])c2)n1`, the activation is inactive: 2.24%.

With `CCS(=O)(=O)c1ncc(Cl)c(C(=O)N(Cc2ccccc2)Cc2ccco2)n1`, the activation is inactive: -8.27%.

Turning to `COc1ccc(-c2nc(CN3CCC(C(=O)NCCN(CC(C)C)CC(C)C)CC3)c(C)o2)cc1OC`, the activation is inactive: -2.75%.

For `CC(C)(C)C(=O)OCc1cc(=O)n2nc(C3CCCCC3)sc2n1`, the activation was active: 79.1%.

For `COc1cccc(CNC(=O)CSc2ncc(S(=O)(=O)c3ccc(C)c(Cl)c3)c(=O)[nH]2)c1`, the activation is inactive: -14.3%.

Consider `CCn1cc(C(=O)NCCc2ccc(OC)c(OC)c2)c(=O)c2cc(S(=O)(=O)N3CCc4ccccc4C3)ccc21`, for which the activation is inactive: -9.42%.

`Cc1ncc(CO)c2c1Oc1nc(-c3ccccc3F)nc(SCC(=O)N3CCCCC3)c1C2`: the activation was inactive: 7.16%.

`COC(=O)c1ccccc1NC(=O)CN1C(=O)COc2ccccc21`: the activation is inactive: -3.43%.

On to `COc1cccc2cc(-c3nc(Cl)c4c5c(sc4n3)CC(C)CC5)c(=O)oc12` (centres undefined), for which the activation is inactive: 4.8%.

`COc1ccc(NC(=O)CSc2nc3c(c(=O)[nH]2)CN(Cc2ccccc2)CC3)cc1Cl`: the activation was inactive: 37.1%.

In the case of `CCc1ccc(NC(=O)Cn2c(=O)n(Cc3ccccc3)c(=O)c3oc4ccccc4c32)cc1`, the activation was inactive: 0.598%.

With `Cc1ccc(S(=O)(=O)c2cn(C)c3cc(N4CCCC4)c(F)cc3c2=O)c(C)c1`, the activation is inactive: -12.1%.

Take `CCc1ccc(NC(=O)c2cnn(-c3c(C)cccc3C)c2C2CCNCC2)cc1`: the activation was inactive: -5.31%.

As to `CCOc1cc(C(=O)Nc2c(NC)c3ccccc3oc2=O)cc(OCC)c1OCC`, the activation was inactive: 3.54%.

On to `COc1ccc(CCC(=O)NCc2nc3cccnc3n2Cc2ccccc2)cc1`, for which the activation is inactive: -20.7%.

`CC1Cc2cc(S(=O)(=O)CCC(=O)Nc3ccc(Cl)cc3F)ccc2N1C(=O)C1CC1` (centres undefined): the activation is inactive: 8.85%.

On to `CC(C)Oc1ccc(C(=O)Nc2ccc(-c3nc4ccccc4s3)cc2)cc1`, for which the activation is inactive: 5.64%.

Take `COc1ccc(CCNC(=O)CCc2c(C)c3cc4c(C)coc4cc3oc2=O)cc1`: the activation is inactive: 33.8%.

Take `Cc1ccccc1Cn1c(CN2CCN(c3cc(Cl)ccc3C)CC2)nc2c1c(=O)[nH]c(=O)n2C`: the activation is inactive: -21.3%.

As for `O=c1cc[nH]c(=O)[nH]1`, the activation was inactive: 44.7%.

For `COc1ccccc1C(=O)Nc1cc(-c2ccc(C)cc2)no1`, the activation is inactive: 7.4%.

As for `CCOc1ccc(CCNC(=O)CCn2c(=O)c3cccn3c3cccnc32)cc1`, the activation is inactive: 3.23%.

With `Cc1ccc(Cl)cc1NC(=O)CCCN1C(=O)CCn2nc(-c3cn(C)c4ccccc34)cc21`, the activation was inactive: 4.34%.

Take `COc1ccc(C)cc1S(=O)(=O)NCC(c1ccc(N(C)C)cc1)N1CCc2ccccc21` (centres undefined): the activation was inactive: -22.5%.

Consider `COc1ccc(N2CCN(C(=O)c3cc4cc5ccc(Cl)cc5nc4o3)CC2)cc1`, for which the activation was inactive: -1.34%.

Consider `CN(c1ccccc1)c1ncnc2c1cnn2C`, for which the activation was inactive: -8.6%.

Regarding `O=C(O)c1ccc(N2C(=O)c3[nH]nc(-c4ccccc4)c3C2c2cccc(F)c2)cc1` (centres undefined), the activation is inactive: 18.9%.

With `CCC(=O)Nc1ccccc1-c1nc2ccccc2n(C(C)C(=O)Nc2ccc(OC)cc2)c1=O` (centres undefined), the activation is inactive: -18.2%.

Regarding `CCNc1nc(Oc2ccc(=O)n(-c3ccccc3)n2)nc(N(C)C)n1`, the activation is inactive: -11.3%.

For `COc1cccc(-c2nc3c(c(C)nn3-c3ccccc3)c3cc(OC)c(OC)cc23)c1`, the activation was inactive: -8.11%.

As to `CCc1ccc(C2C(C(=O)Nc3ccc(Cl)cc3)=C(C)Nc3ncnn32)cc1` (centres undefined), the activation is inactive: -31.5%.

Consider `Cc1ccc2c(c1)C(=O)OC(C(=O)Nc1ncc(Cc3ccccc3)s1)C2` (centres undefined), for which the activation is inactive: -7.76%.

For the molecule `Cc1ccc(NC(=O)Cn2c(=O)oc3cc(S(=O)(=O)N4CCC(C)CC4)ccc32)cc1Cl`, the activation is inactive: 44.5%.

With `Cc1cc(NC(=O)N2CCC(CN3CCOCC3)CC2)ccc1Br`, the activation was inactive: -3.4%.

Turning to `COc1cccc(C2C(=O)N(C3CCCCC3)CC(=O)N2Cc2ccc(Cl)cc2)c1` (centres undefined), the activation is inactive: -21.1%.

On to `COC(=O)c1nnn(CC(=O)NC(=O)Nc2ccccc2F)c1C(=O)OC`, for which the activation was inactive: 8.59%.

As to `Cc1noc(NS(=O)(=O)c2ccc(NC(=O)c3ccc(Br)cc3)cc2)c1C`, the activation is inactive: 12.6%.

Consider `Cc1c(Cl)cccc1NC(=O)c1ccc2nc(C(C)C)oc2c1`, for which the activation was inactive: -2.43%.

On to `CCc1ccccc1Nc1nn2c(=O)c3ccc(C(=O)Nc4ccc(OC)cc4)cc3nc2s1`, for which the activation is inactive: 1.3%.

For `CCN1CCC(N(Cc2ccc(F)cc2)C(=O)Nc2cccc(C(F)(F)F)c2)CC1`, the activation was inactive: -18.9%.

Regarding `O=C(CSc1nc2ccccc2nc1Cc1ccccc1)N1CCN(c2ccccc2)CC1`, the activation is inactive: -5.89%.

Take `Cc1cccc(NC(=O)NCCOCCn2c(=O)oc3ccccc32)c1C`: the activation was inactive: -12.7%.

As to `CC(=O)Nc1cc(-c2ccccc2)nn1Cc1cccc(Cl)c1`, the activation was inactive: 14.7%.

For the molecule `COc1cccc(CNC(=O)CCn2c(=O)c3cccn3c3cccnc32)c1OC`, the activation was inactive: -12.2%.

Take `Cc1nn(CC(=O)NCC(C)c2ccccc2)c(=O)c2cc3ccccc3n12` (centres undefined): the activation is inactive: -12.9%.

Regarding `CCOc1ccc(CNC(=O)C2CCN(S(=O)(=O)c3ccc4c(ccn4C)c3)CC2)cc1`, the activation is inactive: -14.1%.

With `COc1cc2oc(=O)c(CC(=O)NCc3ccc(OC)c(OC)c3)c(C)c2cc1Cl`, the activation is inactive: 24.7%.

`Cc1ccc(-c2noc(-c3ccc(N4CCCCC4C)c([N+](=O)[O-])c3)n2)cc1` (centres undefined): the activation is inactive: 25.8%.

For the molecule `CCCCn1c(=O)c2oc3ccccc3c2n(Cc2cccc(C)c2)c1=O`, the activation was inactive: -3.67%.

As for `Cc1c(Cl)cccc1NC(=O)c1cc2sccc2n1Cc1ccc(F)cc1`, the activation was inactive: 0.0101%.

Turning to `COc1ccc(N(C)C(=O)c2nc(-c3cccc(F)c3)n3c2CCCCC3)c(OC)c1`, the activation is inactive: -23.3%.

In the case of `Cc1ccccc1NC(=O)CSc1cn(CC(=O)N2CCCC2)c2ccccc12`, the activation is inactive: -15.7%.

On to `Cc1c(C(=O)Nc2ccc(-c3nc4cc(Cl)ccc4o3)cc2)oc2ccccc12`, for which the activation is inactive: -22.4%.

For `Cc1ccc(S(=O)(=O)N2CCc3cc(C(=O)NCCc4ccccc4)ccc32)cc1`, the activation was inactive: -4.96%.

As to `Cc1ccc(-c2cc(-c3coc4ccccc4c3=O)c3c(n2)-c2ccccc2OC3)cc1`, the activation was inactive: 0.759%.

On to `Cc1c(-c2cccc(NC(=O)Nc3ccccc3)c2)nc2ncccn12`, for which the activation is active: 95.9%.

Take `CCOc1ccc(NC(=O)CN2CCN(C3CCCCC3)C(=O)C2=O)cc1`: the activation is inactive: 17.4%.

Consider `CCS(=O)(=O)N1CCC2(CC1)OC(=O)C(C)=C2C(=O)NCc1ccccc1C`, for which the activation is inactive: -14.9%.

With `Cc1cc(-c2ccc(S(=O)(=O)NCc3ccccc3Cl)s2)on1`, the activation was inactive: 1.28%.

With `COc1cccc(Cn2c(=O)cc(C)c3c(C)nn(-c4ccc(C)cc4)c32)c1`, the activation is inactive: -12.7%.
